Experimental data: PMC10480448
Results are given in words; binding and its absence hold for the method and conditions named. Binding seen in cells or lysates may run through a third protein. Some binding calls cover weakened binding; strength is not graded here. Values belong to the substance of their own block, whether it stands above or below them.

Protein sequences, listed by entry. Tags and fused reporters are not part of them. Lines headed by an entry give the natural chain unless they say otherwise; changes in a name come on top. Chains listed by the source or under a name are the forms on record and can include a tag or linker. Residues count along the entry.
UniProt Q86WV6: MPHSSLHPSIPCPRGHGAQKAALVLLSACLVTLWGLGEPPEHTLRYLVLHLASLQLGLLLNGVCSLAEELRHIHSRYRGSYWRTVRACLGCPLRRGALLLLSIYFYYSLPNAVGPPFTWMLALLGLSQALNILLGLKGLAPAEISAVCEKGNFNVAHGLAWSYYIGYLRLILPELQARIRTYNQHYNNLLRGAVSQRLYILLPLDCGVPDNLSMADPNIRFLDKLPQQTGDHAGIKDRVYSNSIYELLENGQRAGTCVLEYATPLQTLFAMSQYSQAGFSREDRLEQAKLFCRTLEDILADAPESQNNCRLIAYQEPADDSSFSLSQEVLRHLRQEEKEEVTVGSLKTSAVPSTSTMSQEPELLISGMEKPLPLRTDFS
MYC-STING (140-379): residues 140-379 of Q86WV6
UniProt P35869: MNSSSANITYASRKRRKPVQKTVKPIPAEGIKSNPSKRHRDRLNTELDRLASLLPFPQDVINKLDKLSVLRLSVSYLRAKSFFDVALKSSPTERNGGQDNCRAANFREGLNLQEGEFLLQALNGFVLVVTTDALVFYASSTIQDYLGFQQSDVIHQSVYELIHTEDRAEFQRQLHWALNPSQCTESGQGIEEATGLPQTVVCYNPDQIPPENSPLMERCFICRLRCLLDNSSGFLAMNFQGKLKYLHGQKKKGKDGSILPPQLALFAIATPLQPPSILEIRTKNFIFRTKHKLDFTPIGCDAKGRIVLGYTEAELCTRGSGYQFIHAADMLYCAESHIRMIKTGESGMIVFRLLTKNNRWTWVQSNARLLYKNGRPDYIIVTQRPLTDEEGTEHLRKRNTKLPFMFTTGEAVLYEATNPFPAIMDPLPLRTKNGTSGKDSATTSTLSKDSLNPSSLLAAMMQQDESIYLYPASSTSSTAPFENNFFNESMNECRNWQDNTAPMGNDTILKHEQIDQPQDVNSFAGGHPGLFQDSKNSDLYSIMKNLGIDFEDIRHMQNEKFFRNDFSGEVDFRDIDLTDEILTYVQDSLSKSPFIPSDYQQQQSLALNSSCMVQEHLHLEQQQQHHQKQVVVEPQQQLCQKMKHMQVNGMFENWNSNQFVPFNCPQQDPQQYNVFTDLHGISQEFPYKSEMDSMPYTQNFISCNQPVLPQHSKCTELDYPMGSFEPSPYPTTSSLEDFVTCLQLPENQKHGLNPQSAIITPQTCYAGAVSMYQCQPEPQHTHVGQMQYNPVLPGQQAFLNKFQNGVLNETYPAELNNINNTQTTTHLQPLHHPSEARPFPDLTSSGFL
MYC-AhR (1-424): residues 1-424 of P35869
MYC-AhR (1-120): residues 1-120 of P35869
MYC-AhR (120-424): residues 120-424 of P35869
MYC-AhR (1-277;424-848) (P35869, form named): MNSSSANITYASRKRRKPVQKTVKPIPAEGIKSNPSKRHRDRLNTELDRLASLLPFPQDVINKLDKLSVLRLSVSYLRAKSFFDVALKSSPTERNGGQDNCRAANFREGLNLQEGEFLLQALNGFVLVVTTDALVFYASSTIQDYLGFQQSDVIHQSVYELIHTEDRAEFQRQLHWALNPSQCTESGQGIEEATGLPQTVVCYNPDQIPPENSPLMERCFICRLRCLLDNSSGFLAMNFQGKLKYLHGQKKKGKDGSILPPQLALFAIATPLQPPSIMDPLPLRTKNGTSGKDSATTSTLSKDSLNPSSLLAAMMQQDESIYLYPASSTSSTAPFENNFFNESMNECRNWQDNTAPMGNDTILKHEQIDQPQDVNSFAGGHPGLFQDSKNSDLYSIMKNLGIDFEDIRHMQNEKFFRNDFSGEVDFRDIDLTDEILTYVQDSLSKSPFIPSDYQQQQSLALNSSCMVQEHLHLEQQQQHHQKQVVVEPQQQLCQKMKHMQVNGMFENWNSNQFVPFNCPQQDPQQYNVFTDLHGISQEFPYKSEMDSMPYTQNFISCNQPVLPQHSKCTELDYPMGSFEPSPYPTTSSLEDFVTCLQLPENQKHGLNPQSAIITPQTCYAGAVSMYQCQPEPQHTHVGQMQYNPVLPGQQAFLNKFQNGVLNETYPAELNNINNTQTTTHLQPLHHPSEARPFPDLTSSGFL

How the values were obtained:
STING (endogenous) = STING (endogenous) (UniProt Q86WV6); assay: co-IP; endogenous proteins; cell lysate precipitated with anti-STING antibodies plus Protein A/G, immunoblot; cells treated with Kyn, 5HTP, KynA, 3MC, BaP or cisplatin; also SLC7A5 knocked-out cells
MYC-AhR (120-424) = MYC-AhR (120-424) (UniProt P35869); assay: co-IP; HEK293T cells transfected with tagged proteins; whole-cell extracts incubated with anti-myc beads, washed five times with low-salt lysis buffer, immunoblot; some samples treated with Kyn or cGAMP
MYC-AhR (1-277;424-848) = MYC-AhR (1-277;424-848) (UniProt P35869); assay: as above
MYC-AhR (1-120) = MYC-AhR (1-120) (UniProt P35869); assay: as above
MYC-AhR (1-424) = MYC-AhR (1-424) (UniProt P35869); assay: as above
MYC-AhR (WT) = MYC-AhR (WT) (UniProt P35869); assay: as above
MYC-tagged STING (WT) [1] = biological target: MYC-tagged STING (WT) (UniProt Q86WV6); assay: co-IP; HEK293T cells transfected with MYC-STING and HA-AhR and treated with the AhR inhibitor SR1
MYC-STING (140-379) = MYC-STING (140-379) (UniProt Q86WV6); assay: co-IP; HEK293T cells transfected with tagged proteins; whole-cell extracts incubated with anti-myc beads, washed five times with low-salt lysis buffer, immunoblot; some samples treated with Kyn or cGAMP
MYC-tagged STING (WT) [2] = biological target: MYC-tagged STING (WT) (UniProt Q86WV6); assay: as above

binding (STING (endogenous)): binds
Substance: AhR (endogenous) (from UniProt P35869 11-848)

binding (MYC-AhR (120-424)): binds weakly | binding (MYC-AhR (1-277;424-848)): binds | binding (MYC-AhR (1-120)): binds weakly | binding (MYC-AhR (1-424)): binds weakly | binding (MYC-AhR (WT)): binds
Substance: HA-STING (WT) (from UniProt Q86WV6 1-379)

binding (MYC-STING (140-379)): binds | binding (MYC-tagged STING (WT) [2]): binds
Substance: HA-tagged AhR (WT) (from UniProt P35869 11-848)
binding (MYC-tagged STING (WT) [1]): no binding (condition: with SR1 (AhR inhibitor))
